Experimental data as given in the supplement of paper PMC10126150.
Values marked as one replicate rest on one cluster of the flow cell; about a third of the high ones do not repeat.

test system: ATP; assay: switch fluorescence ratio, 500 uM ATP over buffer (Cy3 cluster intensity, sum of 5 cycles each) (fold (ratio)); higher = stronger signal-on switching upon ATP binding; sequences stand for … in TCGTCGGCAGCGTCAGATGTGTATAAGAGACAGTTTTTTTTTTTTTTTTTTTTTTTTT…TC; conditions: aptamer strand: ATP DNA aptamer (quencher-CACCTGGGGGAGTATTGCGGAGGAAGG + anchor), 100 nM annealed; ATP concentration: 500 uM; one replicate
Procedure, shortened: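 Exposure to 500 uM ATP lasted 15 min at 22 °C before imaging, and a selection-buffer image was taken beforehand, for Cy3-labelled switching-strand clusters on a modified Illumina MiSeq flow-cell annealed to 100 nM quencher-labelled ATP aptamer. Five buffer/ATP cycles were run with NaOH stripping and re-annealing between them. The fluorescence ratio per cluster is summed target-cycle over summed buffer-cycle Cy3 intensity, averaged per switch-domain sequence. Clusters outside 100-1000 RFU were excluded.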

Row | Sequence | switch fluorescence ratio
1 | GATGGAGCGG | 0.983
2 | TCACAAATTG | 1.06
3 | AATCTGTTTG | 0.955
4 | TTTTCGATGA | 0.985
5 | TATTTGAATT | 1.04
6 | TTTTCTTTCG | 1
7 | CGAACACGTG | 1
8 | GCAGTTCAGC | 0.982
9 | CTCATTAGCG | 1.01
10 | TTAGAGTGCG | 0.989
11 | GCAGCATAAC | 4.78
12 | GTTATACATC | 1.03
13 | CGTTTCACGA | 1.03
14 | GGGGTCGTGG | 0.999
15 | GCACGGAGCT | 1.27
16 | CGACTCTAAG | 1.03
17 | ATCTGGTTAT | 1.01
18 | CAACCGAGGT | 1.05
19 | CGAGAGCATG | 1.15
20 | TGAGGAATAA | 1.02
21 | GCACAGCTTT | 1.02
22 | CTCGATTACC | 1.01
23 | TCGGGCGCTC | 1

Row | Sequence | switch fluorescence ratio
24 | TAGTTGTCGT | 0.98
25 | TAACGAATTA | 1.05
26 | AGTGTGTTGT | 1.03
27 | TAGAGCCGTT | 0.958
28 | GGAGCACCA | 1.07
29 | TCAAACTCTG | 0.994
30 | TGGCCCCACG | 1.06
31 | CCCAGGTTTG | 2.7
32 | ATACTGAAGA | 1.04
33 | TCCGTATCCT | 1.06
34 | CATTCCTCAC | 2.53
35 | TGTGAGAAAA | 1.04
36 | GGCATAGGAA | 0.995
37 | GAAGAGTAGG | 0.983
38 | CCGTATGCTT | 1.1
39 | AGCGAATGTG | 1.02
40 | TCAGTTTCCG | 1.21
41 | TACAGATCGG | 1.02
42 | ATGAACTTAC | 1.33
43 | GTGTACTTCC | 1.55
44 | TTTAAGTCGC | 1.02
45 | TGGGAGCCCT | 0.979
46 | CAACTCTTTA | 1.03

Row | Sequence | switch fluorescence ratio
47 | AAAGACCGCG | 0.96
48 | AAATTGGGAC | 0.98
49 | TCACCTTTGG | 1.02
50 | ACCAAAATCT | 1.15
51 | ACAGGCTTGA | 0.981
52 | CAGTCAGCTC | 1.07
53 | TCGCCGGAGA | 1.01
54 | AAACTGTATC | 1.04
55 | TCTGTACTCT | 1.01
56 | CAGCTGGTAG | 1
57 | GCGCCTTACA | 1.04
58 | GGTCATGTCA | 1.03
59 | AAACGGAGAC | 1.13
60 | CTGATAATGG | 1.02
61 | TGGCATTTGA | 1
62 | ACGTCCAGGC | 1.07
63 | GGGCTACTTT | 1.02
64 | GTGGGAATGC | 1.19
65 | GCGGATTAGT | 1.03
66 | GCTTGCGG | 1.03
67 | AAAGTAATTT | 0.996
68 | AGAGGTGGTC | 1
69 | GTCAGGTTGG | 0.974

Row | Sequence | switch fluorescence ratio
70 | GCCGCAGCTG | 1.15
71 | TGTATCTTTG | 1
72 | GTAGTAAAAG | 0.986
73 | GCTAGCTGGA | 1.01
74 | ACTATGGCTA | 0.986
75 | TTTCCGGTAG | 2.11
76 | GTTCGGAATG | 1.03
77 | TCCCTATTGG | 0.993
78 | GGATCAGATC | 0.998
79 | CCGTTGAGTT | 1.03
80 | CGACGGATGT | 1.05
81 | GCAGGCCGTT | 0.984
82 | TTCCGGTAGC | 1.33
83 | TTACTATTTA | 1.05
84 | TTAGAACGAC | 1.07
85 | GACCTGCGGC | 1.01
86 | TAGAGTGAGC | 0.936
87 | CCGGCTGTGG | 1.06
88 | GGAAAAGTCA | 1.01
89 | TTTTTATTAC | 1.03
90 | GCTCTTGTTT | 1.4
91 | CGTTACACAG | 0.977
92 | TACTGAGGTC | 1.02

Row | Sequence | switch fluorescence ratio
93 | TCTATGCGTT | 1.06
94 | GACGTCCTCA | 1
95 | GCCGCTTTTG | 1.04
96 | GTGCCTGACT | 1.02
97 | TCACGGTGGT | 1.02
98 | TAGTGGGGAA | 0.967
99 | GATCTCGATA | 1
100 | TGCTAGCAGA | 0.977
101 | TGAACTATA | 0.999
102 | TGAAAGGTAT | 1.03
103 | CTCGAACTAG | 1.03
104 | TGACTCCCCA | 1.96
105 | TTAATTACC | 1.12
106 | ATGCTCATGC | 1
107 | ACCCACTTTA | 1.37
108 | TGCAAAGGTT | 1.03
109 | GTTCTTACGT | 1.05
110 | AAGGAGGTAA | 0.976
111 | CGTCTGCACG | 1.03
112 | AGTTAGAGAG | 0.997
113 | CTTAGCTGCT | 1.01
114 | GGACGTATAT | 1.19
115 | TCCGCCGATT | 1.02

Row | Sequence | switch fluorescence ratio
116 | GTCTCCCGAT | 1.04
117 | AATCGACGCT | 1.33
118 | TACCTAACGC | 1.36
119 | CGACATGGCA | 1.06
120 | CTAATGACGA | 1.04
121 | ATACTGGTCA | 1.05
122 | GAGTGGACGT | 1.02
123 | GCAATTTGCC | 0.996
124 | AGTCCTACCT | 1.18
125 | GCCCAGAAA | 1.08
126 | GGTTTTGAGT | 0.975
127 | TGTGTGAAG | 0.99
128 | ATGACAAGTA | 1.08
129 | ACAGAGCTTC | 1.05
130 | ACTTGACTCC | 1.35
131 | TAACTGAGTG | 1.02
132 | CTACGTAGCA | 1.45
133 | GGTAGCTTCC | 2.15
134 | AGGGTGTTCT | 0.972
135 | GGGAATCGTT | 1.02
136 | TTCAGTACGG | 1.03
137 | GAAAGTTCCT | 1.06
138 | CCTAGCCTAA | 1.11

Row | Sequence | switch fluorescence ratio
139 | ACATGCGCTA | 1.2
140 | GCGGTCGTGG | 0.955
141 | CCCCACTGTT | 1.06
142 | GTGTTTGGCA | 0.984
143 | GCATTTTCGT | 1.02
144 | TTACGGAGAC | 1.24
145 | TTAGACGTGC | 0.97
146 | AACGTGACGC | 1.22
147 | TAGCGTATCT | 0.976
148 | CTGAAACTCT | 1.05
149 | TTGGCCCTCT | 0.985
150 | CATGACCTCA | 1.05
151 | TTGTCCTGCT | 0.976
152 | ACTTGAGGC | 1.05
153 | CATCAAGTCA | 0.97
154 | TTCGTGCGAA | 0.996
155 | ATTCAGAATT | 1.02
156 | TTAAGATTGA | 0.978
157 | TAAGTTACAG | 1.09
